Assay results: the supplement of paper PMC10928670
MIC of N. gonorrhoeae strains collected 1971-2005, agar dilution (CLSI M07); ranges 0.03-64 mg/L (penicillin, azithromycin), 0.015-1 (cefixime, ceftriaxone), 0.5-256 (spectinomycin); higher = less susceptible. No active / inactive call per row; the paper counts cefixime and ceftriaxone above 0.25 and azithromycin above 1 mg/L as non-susceptible. The source says 'penicillin'; penicillin G is assumed. Isolates are numbered anew.

Tests used:
Assay in all cases: Agar dilution by CLSI M07.
[1] = compound: CC1(C)S[C@@H]2[C@H](NC(=O)Cc3ccccc3)C(=O)N2[C@H]1C(=O)O [penicillin G]
[2] = compound: CC[C@H]1OC(=O)[C@H](C)[C@@H](O[C@H]2C[C@@](C)(OC)[C@@H](O)[C@H](C)O2)[C@H](C)[C@@H](O[C@@H]2O[C@H](C)C[C@H](N(C)C)[C@H]2O)[C@](C)(O)C[C@@H](C)CN(C)[C@H](C)[C@@H](O)[C@]1(C)O [azithromycin]
[3] = compound: CO/N=C(\C(=O)N[C@@H]1C(=O)N2C(C(=O)O)=C(CSc3nc(=O)c(O)nn3C)CS[C@H]12)c1csc(N)n1 [ceftriaxone]
[4] = compound: C=CC1=C(C(=O)O)N2C(=O)[C@@H](NC(=O)/C(=N\OCC(=O)O)c3csc(N)n3)[C@H]2SC1 [cefixime]
[5] = compound: CN[C@@H]1[C@H](O)[C@H](NC)[C@H]2O[C@@]3(O)C(=O)C[C@@H](C)O[C@H]3O[C@@H]2[C@H]1O [spectinomycin]

Row | Test System | MIC [1] [µg/mL] | MIC [2] [µg/mL] | MIC [3] [µg/mL] | MIC [4] [µg/mL] | MIC [5] [µg/mL]
1 | Neisseria gonorrhoeae isolate 161 (GyrA: Wild type, ParC: Wild type, mtrR: -35A Del, G45D, penA: Type IV NonMosaic, A517G, G543S, ponA: L421P, porB: G120K, A121D) | 8 | 0.25 | 0.125 | 0.125 | 32
2 | Neisseria gonorrhoeae isolate 162 (GyrA: Wild type, ParC: Wild type, mtrR: -35A Del, G45D, penA: Type XXII NonMosaic, A517G, ponA: L421P, porB: G120D, A121D) | 0.25 | ≤ 0.03 | ≤ 0.015 | ≤ 0.015 | 32
3 | Neisseria gonorrhoeae isolate 163 (GyrA: Wild type, ParC: Wild type, mtrR: G45D, penA: Type I NonMosaic, ponA: L421P, porB: G120D, A121D) | 0.25 | 0.06 | ≤ 0.015 | ≤ 0.015 | 8
4 | Neisseria gonorrhoeae isolate 164 (GyrA: S91F, ParC: Wild type, mtrR: G45D, penA: Type VII NonMosaic, A501V, A517G, G543S, ponA: L421P, porB: G120K, A121N) | 2 | 0.06 | 0.125 | 0.125 | 32
5 | Neisseria gonorrhoeae isolate 165 (GyrA: Wild type, ParC: Wild type, mtrR: Wild type, penA: Type II NonMosaic, A517G, ponA: Wild type, porB: G120N, A121D) | 32 | 0.25 | ≤ 0.015 | ≤ 0.015 | 16
6 | Neisseria gonorrhoeae isolate 166 (GyrA: D95N, ParC: Wild type, mtrR: Wild type, penA: Type I NonMosaic, ponA: Wild type, porB: Wild type) | 0.125 | ≤ 0.03 | ≤ 0.015 | ≤ 0.015 | 16
7 | Neisseria gonorrhoeae isolate 167 (GyrA: Wild type, ParC: Wild type, mtrR: G45D, penA: Type XXII NonMosaic, A517G, ponA: Wild type, porB: Wild type) | 2 | 0.06 | ≤ 0.015 | ≤ 0.015 | 8
8 | Neisseria gonorrhoeae isolate 168 (GyrA: Wild type, ParC: Wild type, mtrR: G45D, penA: Type XXII NonMosaic, A517G, ponA: Wild type, porB: Wild type) | 0.5 | 0.125 | ≤ 0.015 | ≤ 0.015 | 16
9 | Neisseria gonorrhoeae isolate 169 (GyrA: Wild type, ParC: Wild type, mtrR: Wild type, penA: Type II NonMosaic, A517G, ponA: Wild type, porB: G120K, A121G) | 0.25 | 0.06 | ≤ 0.015 | ≤ 0.015 | 32
10 | Neisseria gonorrhoeae isolate 170 (GyrA: Wild type, ParC: Wild type, mtrR: -35A Del, penA: Type XXII NonMosaic, A517G, ponA: Wild type, porB: G120D) | 0.25 | 0.25 | ≤ 0.015 | ≤ 0.015 | 16
11 | Neisseria gonorrhoeae isolate 171 (GyrA: Wild type, ParC: Wild type, mtrR: -35A Del, penA: Type XXII NonMosaic, A517G, ponA: L421P, porB: G120D) | 0.125 | ≤ 0.03 | ≤ 0.015 | ≤ 0.015 | 16
12 | Neisseria gonorrhoeae isolate 172 (GyrA: Wild type, ParC: Wild type, mtrR: G45D, penA: Type XXII NonMosaic, A517G, ponA: Wild type, porB: Wild type) | ≤ 0.03 | ≤ 0.03 | ≤ 0.015 | ≤ 0.015 | ≤ 0.5
13 | Neisseria gonorrhoeae isolate 173 (GyrA: Wild type, ParC: Wild type, mtrR: -35A Del, penA: Type XXII NonMosaic, A517G, ponA: L421P, porB: G120K, A121D) | 1 | 0.25 | 0.03 | 0.03 | 64
14 | Neisseria gonorrhoeae isolate 174 (GyrA: Wild type, ParC: Wild type, mtrR: -35A Del, penA: Type XXII NonMosaic, A517G, ponA: L421P, porB: G120D) | 4 | 0.5 | 0.03 | 0.03 | 16
15 | Neisseria gonorrhoeae isolate 175 (GyrA: Wild type, ParC: Wild type, mtrR: Wild type, penA: WT NonMosaic, ponA: Wild type, porB: porB1a) | ≤ 0.03 | 0.125 | ≤ 0.015 | ≤ 0.015 | 32
16 | Neisseria gonorrhoeae isolate 176 (GyrA: S91F, D95G, ParC: Wild type, mtrR: -35A Del, penA: Type V Nonmosaic, A517G, G543S, ponA: L421P, porB: G120K, A121D) | 4 | 0.5 | 0.03 | 0.03 | 64

Row | Test System | MIC [1] [µg/mL] | MIC [2] [µg/mL] | MIC [3] [µg/mL] | MIC [4] [µg/mL] | MIC [5] [µg/mL]
17 | Neisseria gonorrhoeae isolate 177 (GyrA: S91F, D95G, ParC: Wild type, mtrR: -35A Del, penA: Type V Nonmosaic, A517G, G543S, ponA: L421P, porB: G120K, A121D) | 2 | 0.5 | 0.03 | 0.03 | 32
18 | Neisseria gonorrhoeae isolate 178 (GyrA: Wild type, ParC: Wild type, mtrR: -35A Del, penA: Type XII NonMosaic, A517G, ponA: L421P, porB: G120K, A121N) | 2 | 0.25 | 0.125 | 0.06 | 16
19 | Neisseria gonorrhoeae isolate 179 (GyrA: Wild type, ParC: Wild type, mtrR: G45D, penA: Type XXII NonMosaic, A517G, ponA: Wild type, porB: Wild type) | 0.25 | ≤ 0.03 | ≤ 0.015 | ≤ 0.015 | 16
20 | Neisseria gonorrhoeae isolate 180 (GyrA: Wild type, ParC: Wild type, mtrR: Wild type, penA: WT NonMosaic, ponA: Wild type, porB: Wild type) | ≤ 0.03 | 0.06 | ≤ 0.015 | ≤ 0.015 | 32
21 | Neisseria gonorrhoeae isolate 181 (GyrA: Wild type, ParC: Wild type, mtrR: -35A Del, penA: Type II NonMosaic, A517G, ponA: Wild type, porB: porB1a) | > 64 | 0.125 | ≤ 0.015 | ≤ 0.015 | 16
22 | Neisseria gonorrhoeae isolate 182 (GyrA: Wild type, ParC: Wild type, mtrR: -35A Del, penA: Type XXII NonMosaic, A517G, ponA: L421P, porB: Wild type) | > 64 | 0.5 | ≤ 0.015 | ≤ 0.015 | 16
23 | Neisseria gonorrhoeae isolate 183 (GyrA: S91F, D95N, ParC: S88P, mtrR: -35A Del, G45D, penA: Type X Mosaic, N513Y, ponA: L421P, porB: G120K, A121N) | 4 | 0.125 | 0.125 | 0.5 | 32
24 | Neisseria gonorrhoeae isolate 184 (GyrA: Wild type, ParC: Wild type, mtrR: -35A Del, penA: Type IV NonMosaic, A517G, G543S, ponA: L421P, porB: G120K, A121D) | 0.25 | ≤ 0.03 | ≤ 0.015 | ≤ 0.015 | 16
25 | Neisseria gonorrhoeae isolate 185 (GyrA: Wild type, ParC: Wild type, mtrR: G45D, penA: Type XXII NonMosaic, A517G, ponA: Wild type, porB: G120A) | 0.25 | 0.25 | ≤ 0.015 | ≤ 0.015 | 16
26 | Neisseria gonorrhoeae isolate 186 (GyrA: Wild type, ParC: Wild type, mtrR: Wild type, penA: Type II NonMosaic, A517G, ponA: Wild type, porB: Wild type) | 0.5 | 0.25 | ≤ 0.015 | ≤ 0.015 | 16
27 | Neisseria gonorrhoeae isolate 187 (GyrA: Wild type, ParC: Wild type, mtrR: Wild type, penA: WT NonMosaic, ponA: Wild type, porB: porB1a) | ≤ 0.03 | 0.125 | ≤ 0.015 | ≤ 0.015 | 16
28 | Neisseria gonorrhoeae isolate 188 (GyrA: S91F, ParC: Wild type, mtrR: G45D, penA: Type IV NonMosaic, A517G, G543S, ponA: L421P, porB: G120K, A121D) | 2 | 0.06 | 0.03 | 0.03 | 32
29 | Neisseria gonorrhoeae isolate 189 (GyrA: Wild type, ParC: Wild type, mtrR: Wild type, penA: Type V Nonmosaic, A517G, G543S, ponA: L421P, porB: G120K, A121D) | 2 | 0.25 | 0.03 | 0.03 | 32
30 | Neisseria gonorrhoeae isolate 190 (GyrA: Wild type, ParC: Wild type, mtrR: -35A Del, G45D, penA: Type 46 NonMosaic, A517G, ponA: L421P, porB: G120D) | 1 | 0.125 | ≤ 0.015 | ≤ 0.015 | 8
31 | Neisseria gonorrhoeae isolate 191 (GyrA: Wild type, ParC: Wild type, mtrR: G45D, penA: Type XXII NonMosaic, A517G, ponA: Wild type, porB: G120D) | 0.25 | 0.06 | ≤ 0.015 | ≤ 0.015 | 16
32 | Neisseria gonorrhoeae isolate 192 (GyrA: Wild type, ParC: Wild type, mtrR: Wild type, penA: Type I NonMosaic, ponA: Wild type, porB: Wild type) | 2 | 0.25 | ≤ 0.015 | ≤ 0.015 | 32
